Data published in publication PMC6451091.
The list shows a part of the results. For some assays here: At the low end of the ranking the order means little. For some assays here: The protein was read in a cell extract, so binding may be indirect.

Legend:
Settings in all cases: 20 mM HEPES pH 7.9, 100 mM NaCl, 1 mM DTT, 0.2 mg/mL BSA, 0.02% Triton X-100, 2% milk, 0.4 mg/mL salmon testes DNA; 1 h; temperature not stated; high values mean tight binding; double strand, one strand shown; sequences stand for … in GCCTAGCAC…GTGCTAGGTCTTGATTCGCTTGACGCTGCTG
PU.1 (IVT) = PU.1 (IVT) (UniProt P17947); experiment: protein-binding microarray (PBM)
[1] = target: PU.1 (endogenous, THP-1 nuclear extract) (UniProt P17947); experiment: nuclear extract protein-binding microarray (nextPBM)
[2] = target: T1, FLI1 (endogenous, THP-1 nuclear extract) (UniProt Q01543); experiment: as above
T1 sequence: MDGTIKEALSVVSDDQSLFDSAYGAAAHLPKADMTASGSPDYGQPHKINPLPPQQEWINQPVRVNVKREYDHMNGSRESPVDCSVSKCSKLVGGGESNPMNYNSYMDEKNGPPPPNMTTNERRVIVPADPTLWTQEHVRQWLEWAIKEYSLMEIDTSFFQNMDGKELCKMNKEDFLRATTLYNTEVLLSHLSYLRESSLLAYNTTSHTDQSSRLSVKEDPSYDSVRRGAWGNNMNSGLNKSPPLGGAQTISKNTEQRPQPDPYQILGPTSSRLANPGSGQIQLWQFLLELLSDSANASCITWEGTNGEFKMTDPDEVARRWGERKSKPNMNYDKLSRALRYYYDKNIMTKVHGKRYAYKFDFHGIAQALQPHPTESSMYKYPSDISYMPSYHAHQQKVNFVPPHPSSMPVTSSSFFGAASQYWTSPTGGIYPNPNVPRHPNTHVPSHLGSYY

[3] = tested on: PU.1 (endogenous, THP-1 nuclear extract) + IRF8 (endogenous, THP-1 nuclear extract); experiment: as above

| Sequence | binding signal (PU.1 (IVT)) | binding signal [1] | binding signal [2] | binding signal [3] |
| --- | --- | --- | --- | --- |
| TCGGTCTGGCATGATGAAGC | -0.297 z-score | -0.338 z-score | -0.619 z-score | 0.412 z-score |
| TTTTATTTTACAATTAAAAC | -0.18 z-score | -0.689 z-score | -0.291 z-score | -0.175 z-score |
| CCTCAGAGTGCTATACCTTT | -0.565 z-score | -0.476 z-score | -0.54 z-score | -1.56 z-score |
| CTGTATTTTCTTAGCTACTA | -0.159 z-score | -0.406 z-score | -0.3 z-score | -0.171 z-score |
| AAGGTGACTGCCTGAAACTT | -0.442 z-score | -0.433 z-score | -0.343 z-score | 2.01 z-score |
| TCAAGAGCGTAAGACTTTAT | -0.585 z-score | -0.709 z-score | -1.12 z-score | -1.4 z-score |
| GTCTGGAGGGCGGACGCGAG | -0.689 z-score | 0.0878 z-score | 0.686 z-score | 0.701 z-score |
| CGAAAAGCTGCATGAAACCA | -0.57 z-score | -0.421 z-score | -0.526 z-score | 2.34 z-score |
| TTTCCATTCTTAGTGTCTTG | -0.133 z-score | -0.316 z-score | 0.0634 z-score | 0.631 z-score |
| CTCGAAAATGTGGGAAGTCT | 3.26 z-score | 2.44 z-score | 1.28 z-score | -0.467 z-score |
| AGGGTGTCTTAGTTCATTTG | 0.521 z-score | -0.317 z-score | -0.365 z-score | 1.11 z-score |
| TTTCAGGTAATTCTAATACA | 0.129 z-score | -0.216 z-score | -0.0686 z-score | 1.69 z-score |
| AGAGAGATGTGACTTGTCCA | 0.21 z-score | -0.0295 z-score | -0.787 z-score | 0.668 z-score |
| CAAGGCTGCAATGAGTCATG | -0.036 z-score | -0.209 z-score | -0.686 z-score | 0.69 z-score |
